{"source": "patent US20260193307A1", "about": "(ASKGENE PHARMA, published 2026)", "binders": {"B1": {"name": "K3-30F7 scFv-Fc (JR8.144.1) (Fc fusion)", "scFv": "[about 100 residues not listed]PWTFGQGTKVEIKAGGGGSGGGGSGGGGSQVQLVESGGGVVQPGRSLRLSCAASGFTFSTYGMHWVRQAPGKGLEWVAVISHEGNNKYYADSVKGRFTISRDNSKNTLYLQMNSLRAEDTAVYYCARDWFYGRARFDPWGQGTLVTVSS", "notes": "Purified scFv-Fc homodimer; also called JR8.144.1 K3-30F7; not shown: Human Fc domain of the scFv-Fc homodimer and its linker to the scFv"}, "B2": {"name": "K3-30F6 scFv-Fc (JR8.156.4) (Fc fusion)", "chain": "[about 100 residues not listed]AGGGGSGGGGSGGGGSEVQLLESGGGLVQPGGSLRLSCAASGFTFSDYAMSWVRQAPGKGLELVSVISSGGGATYYADSVKGRFTISRDNSKNTLYLQMNSLRAEDTAVYYCARGPRTYDVWGQGTLVTVSS", "notes": "Purified scFv-Fc homodimer; also called JR8.156.4 K3-30F6; not shown: Fc fragment (human Fc domain)"}, "B3": {"name": "K1-69G3 scFv-Fc (JR8.156.5) (Fc fusion)", "chain": "[about 100 residues not listed]PITFGQGTKVEIKAGGGGSGGGGSGGGGSQVQLVQSGAEVKKPGSSVKVSCKASGGTFSSYGIHWVRQAPGQGLEWMGGIIPSFGITNYAQKFQGRVTITADESTSTAYMELSSLRSEDTAVYYCARYPYSFDHWGQGTLVTVSS", "notes": "Purified scFv-Fc homodimer; also called JR8.156.5 K1-69G3; not shown: Fc fragment (human Fc domain)"}}}
{"biological_target": "IL-2 (UniProt P60568)", "experiment": "ForteBio (BLI), purified scFv-Fc to IL-2", "units": {"Kd": "pM"}}
{"binder": "B1", "Kd": "< 1", "Response": 0.3}
{"binder": "B2", "Kd": "< 1", "Response": 3.9}
{"binder": "B3", "Kd": "< 1", "Response": 0.6}
